Experimental data from publication PMC3738564.
No constants are given. Whether binding was seen depends on the method and setting. In cells and extracts the contact can be indirect. Some entries that bind do so weakly or less than the wild type. Blank lines part the entries; values can stand above or below the binder they belong to.

Experiments:
[1] = molecular target: T1, β-dystroglycan (mouse (endogenous in skeletal muscle)) (UniProt Q62165); assay: co-IP; β-dystroglycan precipitated with MANDAG2 from mdx/Utrn-/- (no dystrophin, no utrophin) mouse quadriceps lysate (1% digitonin, 0.05% NP-40); Western blot
T1 sequence: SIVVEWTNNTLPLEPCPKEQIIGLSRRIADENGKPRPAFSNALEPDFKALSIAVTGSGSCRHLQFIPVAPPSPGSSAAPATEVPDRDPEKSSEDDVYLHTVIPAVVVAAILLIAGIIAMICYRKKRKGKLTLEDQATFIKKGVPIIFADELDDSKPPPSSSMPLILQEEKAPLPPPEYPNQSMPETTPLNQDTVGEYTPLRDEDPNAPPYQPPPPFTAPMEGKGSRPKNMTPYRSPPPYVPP

[2] = molecular target: T1, β-dystroglycan (mouse (endogenous in skeletal muscle)); assay: co-IP; β-dystroglycan precipitated with MANDAG2 on protein G beads from wild type mouse quadriceps lysate (1% digitonin, 0.05% NP-40; 1 mg protein); Western blot; also done on mdx and mdx/Utrn-/- lysates
[3] = molecular target: T2, β-dystroglycan (mouse (endogenous in skeletal muscle)), Q62165; assay: as above; settings: remark: other sources report otherwise
T2 chain: T1 sequence

- binding [1]: binds weakly
- binding [2]: binds
B1: α1-syntrophin (protein, UniProt Q61234 1-503)
chain: MASGRRAPRTGLLELRCGAGSGAGGERWQRVLLSLAEDALTVSPADGEPGPEPEPAQLNGAAEPGAAPPQLPEALLLQRRRVTVRKADAGGLGISIKGGRENKMPILISKIFKGLAADQTEALFVGDAILSVNGEDLSSATHDEAVQALKKTGKEVVLEVKYMKEVSPYFKNSAGGTSVGWDSPPASPLQRQPSSPGPQPRNLSEAKHVSLKMAYVSRRCTPTDPEPRYLEICAADGQDAVFLRAKDEASARSWAGAIQAQIGTFIPWVKDELQALLTATGTAGSQDIKQIGWLTEQLPSGGTAPTLALLTEKELLFYCSLPQSREALSRPTRTAPLIATSSAHRLVHSGPSKGSVPYDAELSFALRTGTRHGVDTHLFSVESPQELAAWTRQLVDGCHRAAEGIQEVSTACTWNGRPCSLSVHIDKGFTLWAAEPGAARAMLLRQPFEKLQMSSDDGTSLLFLDFGGAEGEIQLDLHSCPKTMVFIIHSFLSAKVTRLGLLA

- binding [3]: binds
B2: α-dystroglycan, Q62165 28-651 (protein)
chain: HWPSEPSEAVRDWKNQLEASMHSVLSDFQEAVPTVVGIPDGTAVVGRSFRVSIPTDLIASSGEIIKVSAAGKEALPSWLHWDPHSHILEGLPLDTDKGVHYISVSAARLGANGSHVPQTSSVFSIEVYPEDHNEPQSVRAASSDPGEVVPSACAADEPVTVLTVILDADLTKMTPKQRIDLLNRMQSFSEVELHNMKLVPVVNNRLFDMSAFMAGPGNAKKVVENGALLSWKLGCSLNQNSVPDIRGVETPAREGAMSAQLGYPVVGWHIANKKPTLPKRLRRQIHATPTPVTAIGPPTTAIQEPPSRIVPTPTSPAIAPPTETMAPPVRDPVPGKPTVTIRTRGAIIQTPTLGPIQPTRVSEAGTTVPGQIRPTLTIPGYVEPTAVITPPTTTTKKPRVSTPKPATPSTDSSTTTTRRPTKKPRTPRPVPRVTTKAPITRLETASPPTRIRTTTSGVPRGGEPNQRPELKNHIDRVDAWVGTYFEVKIPSDTFYDNEDTTTDKLKLTLKLREQQLVGEKSWVQFNSNSQLMYGLPDSSHVGKHEYFMHATDKGGLSAVDAFEIHVHKRPQGDKAPARFKARLAGDPAPVVNDIHKKIALVKKLAFAFGDRNCSSITLQNITRG
modifications: here or on the partner: highly glycosylated; carbohydrate moieties bound by wheat germ agglutinin

- binding [3]: binds
B3: β-sarcoglycan, P82349 1-320 (protein)
chain: MAAAAAAAAATEQQGSNGPVKKSMREKAVERRNVNKEHNSNFKAGYIPIDEDRLHKTGLRGRKGNLAICVIVLLFILAVINLLITLVIWAVIRIGPNGCDSMEFHESGLLRFKQVSDMGVIHPLYKSTVGGRRNENLVITGNNQPIVFQQGTTKLSVEKNKTSITSDIGMQFFDPRTHNILFSTDYETHEFHLPSGVKSLNVQKASTERITSNATSDLNIKVDGRAIVRGNEGVFIMGKTIEFHMGGDVELKAENSIILNGTVMVSPTRLPSSSSGDQSGSGDWVRYKLCMCADGTLFKVQVTGHNMGCQVSDNPCGNTH

- binding [1]: binds weakly
- binding [2]: binds
B4: β1-syntrophin (protein, UniProt Q99L88 1-537)
chain: MAVAAAAVAAPAGGGGARAQRSGLLEVLVRDRWHKVLVNLSEDALVLSCEEGAAAYNGIGAATNGSFCRGSGTGHPVPGVAQAPDSPAGVRTAFTDLPEQVPESISNQKRGVKVLKQELGGLGISIKGGKENKMPILISKIFKGLAADQTQALYVGDAILSVNGADLRDATHDEAVQALKRAGKEVLLEVKYMREATPYVKKGSPVSEIGWETPPPESPRLGGGSAEPLSSQSFSFHRDRKSIPLKMCYVTRNMTLADPENRQLEIHSPDAKHTVILRSKDSATAQAWFSAIHSNAGDLLTRVVADIREQLGKTGIAGSREIRHLGWLAEKVPGESEKQWKPALVVLTEKDLLIYDSMPRRKEAWFSPVHSYPLLATRLVHSGPGKGSPQAGMDLSFATRTGTKQGIETHLFRAEISRDLSHWTRSIVQGCHNSAELTAEITTACTYRNQECRLTIHYDNGFSISTEPQDGAFPKTIIQSPYEKLKMSSDDGIRMLYLDFGGKEGEIQLDLHSCPKPIVFIIHSFLSAKITRLGLVA
